Hit rate of the full screen: of about 44,000 compounds, about 340 (0.77%) were called active. Roughly 5% stayed inconclusive and do not appear here. Calls come from the whole dose curve; as a rule, active = well fitted inhibition curve with a large enough effect; inconclusive = small, poorly fitted or top-dose-only effect; inactive = flat fitted curve, though single readings scatter. The list shows a part of the results.
Potency is the fitted concentration of half-maximal effect.

The assay in a line: Acumen qHTS Assay for Inhibitors of the mTORC1 Signaling Pathway in MEF (Tsc2-/-, p53-/-) Cells: Sytravon.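 For activity change, negative = inhibition: plate controls were DMSO for no effect and rapamycin for full effect.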 Note: nearly all actives have a fitted effect of over 50% in size. Particulars: phospho-rpS6 immunofluorescence/PI, 24 h; series mostly up to 38.3 µM; activity change, negative = inhibition: at the top concentration. The method in brief: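 Tsc2-/-, p53-/- mouse embryonic fibroblasts (empty-vector line) exposed to compound 24 hrs at 37 C, fixed, immunostained for phospho-rpS6 and counterstained with propidium iodide. Acumen laser scanning gives % positive cells from Alexa 488/PI ratio, thresholded using 7.5 nM rapamycin; PI count gives viability.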
As to `CCN(CC)C(=O)C1CCCN(c2ncnc3c2nc2n3CCCCC2)C1` (configuration not stated), the “activity change, negative = inhibition” value is inactive: 2.64%.
For the compound `COC(=O)c1ccccc1NC(=O)CCCS(=O)(=O)c1nc(-c2ccccc2OC)cc(C(F)(F)F)n1`, the “activity change, negative = inhibition” value is inactive: -1.35%.
Regarding `CCOc1ccccc1CNC(=O)CN1C(=O)C2CCCCN2c2ccc(C(=O)N(C)C)cc21` (configuration not stated), the “activity change, negative = inhibition” value was inactive: -0.452%.
Same read-out and setting: in the case of `COc1ccc(CCCc2nnc(SCC(=O)Nc3ccc(Cl)cc3)o2)cc1` it was inactive: -8.61%; in that of `CCOc1ccc(OCC)c(NC(=O)c2c(C)nn(-c3ccccc3)c2-n2cccc2)c1`, inactive: -7.89%; in that of `Cc1nn(C)c2c1c(C(F)(F)F)cc(=O)n2CC(=O)NC(C)(C)C`, inactive: 7.51%.
`CCc1ccccc1NC(=O)c1ccc2[nH]c(C)c(C)c2c1`: the “activity change, negative = inhibition” value is inactive: 2.17%.
With `Cc1oc2ncnc(N3CCCCC3)c2c1C(=O)Nc1cccc(F)c1`, the “activity change, negative = inhibition” value was inactive: 3.59%.
As for `COc1ccc(-c2cc(-c3ccc(F)cc3)nc3c2COc2ccccc2-3)cc1`, the “activity change, negative = inhibition” value was inactive: 6.9%.
On to `CCc1ccc(CNC(=O)c2sc3ncnc(N(C)C4CCCCC4)c3c2C)cc1`, for which the “activity change, negative = inhibition” value was inactive: 2.73%.
Consider `Cc1ccccc1CN1C(=O)C(O)(CC(=O)c2cccc(Br)c2)c2ccccc21` (configuration not stated), for which the “activity change, negative = inhibition” value is inactive: -14%.
The same measure, in the same setting: in the case of `CCOc1ccccc1C1Nc2ccccc2-c2nnc(SCc3ccccc3)nc2O1` (configuration not stated) it was inactive: -13.1%; in that of `Cc1c(C(=O)NCc2ccccc2)oc2c1-c1[nH]ncc1CC2`, inactive: 2.78%; in that of `COc1ccc(Nc2cc(C(=O)NCCCN(C)C3CCCCC3)c3ccccc3n2)cc1`, inactive: -79.7%.
On the same count and under the same terms, for `CCOc1ccc(-c2nnc(SCC(=O)NCCc3ccccc3)nc2-c2ccc(OCC)c(OC)c2)cc1OC` the value was inactive: -6.56%; for `COc1ccc(Br)cc1CNC(=O)c1ccc(-n2c(C)cc3c2CCC(C)C3)cc1` (configuration not stated), inactive: -23.3%.
Regarding `Cc1cc(O)c(CN2CCN(c3ccc(F)cc3)CC2)c2oc(=O)cc(C)c12`, the “activity change, negative = inhibition” value was inactive: 2.04%.
Consider `Cc1cccc(C(=O)Nc2nnc(S(=O)(=O)N3c4ccccc4CC3C)s2)c1` (configuration not stated), for which the “activity change, negative = inhibition” value was inactive: 7.84%.
For `COCCCn1c(=N)c(C(=O)NC2CCCC2)cc2c(=O)n3cc(C)ccc3nc21`, the “activity change, negative = inhibition” value is inactive: 0.335%.
Take `CCn1c(=O)cc(OCC(=O)Nc2ccccc2Cl)c2ccccc21`: the “activity change, negative = inhibition” value was inactive: -0.386%.
In the case of `CCOc1ccc(CCNC(=O)c2nn(-c3ccc(OC)cc3)c(=O)c3c2c2ccccc2n3C)cc1OCC`, the “activity change, negative = inhibition” value is inactive: 4.64%.
With `O=C(O)CCc1ccc(-c2ccc(Cl)cc2)n1-c1cccc(C(F)(F)F)c1`, the “activity change, negative = inhibition” value is inactive: -10.2%.
Consider `CCOC(=O)c1cnc(NCc2ccc(Cl)cc2)c2ccccc12`, for which the “activity change, negative = inhibition” value was inactive: -4.63%.
The same measure, in the same setting: for `Cc1ccc2[nH]c3c(=O)n(CC(=O)N(C)Cc4ccccc4)ncc3c2c1` the value was inactive: -7.32%.
Take `O=C(Cc1ccc(F)cc1)NCCc1csc(-c2ccc(C(F)(F)F)cc2)n1`: the “activity change, negative = inhibition” value was inactive: -13.1%.
With `Cn1c(CN2CCCCC2)nc2cc(NC(=O)c3ccc(Cl)cc3)ccc21`, the “activity change, negative = inhibition” value was inactive: -11.7%.
For the compound `CCN(CC)C(=O)c1ccccc1NC(=O)c1cccc(S(=O)(=O)N2CCC(C)CC2)c1`, the “activity change, negative = inhibition” value is inactive: -0.527%.
Take `O=C(NC1CCCCC1)/C(=C/c1ccc(Cl)cc1)NC(=O)c1ccccc1`: the Potency was active: 14.7 µM.
As to `Cc1ccc(C(=O)CSc2nnc3ccc4ccccc4n23)cc1`, the “activity change, negative = inhibition” value is inactive: -15.5%.
As to `N#Cc1cc2c(=O)n3ccccc3nc2n(-c2nnc(SCc3ccccc3)s2)c1=O`, the “activity change, negative = inhibition” value is inactive: -5.71%.
Consider `Cc1ccc(NC(CNS(=O)(=O)c2ccc(Cl)cc2)c2ccccc2)cc1` (configuration not stated), for which the “activity change, negative = inhibition” value was inactive: -15%.
With `Cc1ccc(CNC(=O)C2CCN(c3ncnc4c3nc3n4CCCCC3)CC2)cc1`, the “activity change, negative = inhibition” value is inactive: -4.06%.
In the case of `CCC(=O)N1c2ccc(S(=O)(=O)N3CCN(c4ccccc4Cl)CC3)cc2CC1C` (configuration not stated), the “activity change, negative = inhibition” value is inactive: -0.682%.
As for `Cc1cccc(N(C)c2nc3ccc(C)cc3n3nnnc23)c1`, the “activity change, negative = inhibition” value was inactive: 0%.
As to `CCOC(=O)C1CCCN(S(=O)(=O)c2cc(-c3cc(C)no3)ccc2C)C1` (configuration not stated), the “activity change, negative = inhibition” value was inactive: 3.16%.
Turning to `Cc1cccc(C)c1Nc1c(-c2ccccc2O)nc2ncccn12`, the “activity change, negative = inhibition” value was inactive: -14%.
For `Cc1ccccc1CNC(=O)c1ccc2c(c1)N(Cc1ccccc1)CCS2`, the “activity change, negative = inhibition” value was inactive: -7.32%.
In the case of `O=C(CCCn1c(=O)c2cccn2c2cccnc21)Nc1ccccc1Br`, the “activity change, negative = inhibition” value was inactive: -0.55%.
In the case of `O=c1oc2ccc3ccccc3c2cc1-c1nnc(Nc2cccc(F)c2)s1`, the “activity change, negative = inhibition” value was inactive: 4.69%.
`CCOC(=O)c1c(NC(=O)/C=C/c2ccc(OCC)cc2)sc2c1CCC2`: the “activity change, negative = inhibition” value is inactive: -2.24%.
With `CCCCn1c(=O)c2oc3ccccc3c2n(CC(=O)Nc2ccccc2OC)c1=O`, the “activity change, negative = inhibition” value was inactive: -5.23%.
On the same count and under the same terms, in the case of `Cc1ccc(CNC(=O)Cn2cc(C(=O)c3ccc(Cl)cc3)c(=O)c3ccc(C)nc32)cc1` it was inactive: -16%; in that of `CCc1ccc(C2=C(C)C(N3CCC(C(=O)NCc4ccc(C)o4)CC3)=NS2(=O)=O)cc1`, inactive: 0.123%.
Turning to `CCCCNC(=O)[C@@H](c1ccccc1)N1Cc2ccccc2C1=O`, the “activity change, negative = inhibition” value was inactive: 2.52%.
Take `Cc1ccc(S(=O)(=O)N2CCCc3cc(NC(=O)c4c(F)cccc4F)ccc32)cc1`: the “activity change, negative = inhibition” value is inactive: 7.97%.
Consider `Cc1nn(CC(=O)NCc2ccccc2Br)c(=O)c2cc3occc3n12`, for which the “activity change, negative = inhibition” value was inactive: 0.347%.
In the case of `O=C(CCn1c(=O)c2cccn2c2cccnc21)N1CCN(c2ccc(Cl)cc2)CC1`, the “activity change, negative = inhibition” value is inactive: -1.22%.
Regarding `Cc1cccc(OCCCCn2c(C3CC(=O)N(c4ccc(C)cc4C)C3)nc3ccccc32)c1` (configuration not stated), the “activity change, negative = inhibition” value is inactive: -0.621%.
Turning to `Cc1ccc(Cl)cc1-n1ncc2c(N3CCC(C(N)=O)CC3)ncnc21`, the “activity change, negative = inhibition” value was inactive: -1.29%.
For the compound `CNc1oc(/C=C/c2cc(OC)c(OC)c(OC)c2)nc1C#N`, the “activity change, negative = inhibition” value was inactive: 1.78%.
The same measure, in the same setting: in the case of `O=C(OCC1CCCO1)c1ccc2c(c1)N(Cc1ccccc1F)C(=O)c1ccccc1S2(=O)=O` (configuration not stated) it was inactive: -0.672%; in that of `CCOc1ccccc1NC(=O)CSc1nccn1Cc1ccc(F)cc1`, inactive: -7.94%; in that of `Cc1ccc(-n2c(=O)c3ccc(C(=O)NCc4ccccc4Cl)cc3n(CC(N)=O)c2=O)cc1`, inactive: -19.8%.
Same read-out and setting: for `Cc1ccccc1C(=O)Nc1ccc(C(=O)OCc2cc(=O)n3c4c(sc3n2)CCCC4)cc1` the value was inactive: 8.98%.
With `Cc1cccc(CNC(=O)c2cnc3sc(N4CCOCC4)nn3c2=O)c1`, the “activity change, negative = inhibition” value was inactive: 5.57%.
For `Cc1ccc(C(=O)Nc2ccc(F)cc2)cc1S(=O)(=O)N1CCOCC1`, the “activity change, negative = inhibition” value was inactive: 2.72%.
On the same count and under the same terms, in the case of `COc1ccc(NC(=O)C2CCN(C(=O)c3sc4nc[nH]c(=O)c4c3C)CC2)cc1Cl` it was inactive: -0.708%; in that of `CN(CC(=O)Nc1ccc(Br)cc1)S(=O)(=O)c1cccc2nsnc12`, inactive: -1.17%; in that of `COc1ccccc1NC(=O)CSc1nc2c(oc3ccccc32)c(=O)n1-c1ccccc1F`, inactive: 3.05%.
On to `Cc1cc2oc(C(=O)N(Cc3ccc(N(C)C)cc3)CC3CCCO3)c(C)c2cc1Cl` (configuration not stated), for which the “activity change, negative = inhibition” value was inactive: 2.72%.
`CN1C(=O)Cc2cc(S(=O)(=O)CCC(=O)N3CCN(c4ccc(Cl)cc4)CC3)ccc21`: the “activity change, negative = inhibition” value was inactive: 5.43%.
With `COc1ccc(NC(=O)c2oc3ccccc3c2NC(=O)c2cc(C)cc(C)c2)c(OC)c1`, the “activity change, negative = inhibition” value is inactive: 1.86%.

For the origin of these results see PubChem BioAssay AID493208 (National Center for Advancing Translational Sciences (NCATS), 2011).
